# Results reported in the supplement of paper PMC12217912.
# This is one part of the list. Sequences were assembled here from the parent chain. Inactive controls read about 0.05.
# B1: TEV protease; numbered along this chain (parent)
# chain: MGESLFKGPRDYNPISSSICHLTNESDGHTTSLYGIGFGPFIITNKHLFRRNNGTLVVQSLHGVFKVKDTTTLQQHLVDGRDMIIIRMPKDFPPFPQKLKFREPQREERICLVTTNFQTKSMSSMVSDTSCTFPSGDGIFWKHWIQTKDGQCGSPLVSTRDGFIVGIHSASNFTNTNNYFTSVPKNFMELLTNQEAQQWVSGWRLNADSVLWGGHKVFMVKPEEPFQPVKEATQL
# Variants of: B1
# Test: raw area under fraction-flipped curve 0-4 h after induction (AUC4h, not background-subtracted), DNA-recorder readout of cleavage of the substrate (dimensionless); higher = more cleavage of the substrate by the protease variant
# Conditions: temperature: 34 °C; time window: 0-4 h after rhamnose induction
# Method: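 In vivo DNA recorder in E. coli TOP10(DE3) ΔrhaA at 34 °C. Each TEVp single-site mutant (parent TEVp 0) is paired with a single-site variant of the 7-mer TEVs (canonical ENLYFQ|S). The substrate sits between flexible linkers in a Bxb1-sfGFP-TEVs-SsrA fusion, so cleavage stabilises Bxb1 and speeds flipping of a recombination array, read by NGS. The value is the raw area under the fraction-flipped curve over 0-4 h after rhamnose induction (AUC4h), with ≥20 reads per time point. It is not background-subtracted; inactive controls average about 0.047.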
# 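Also: Bxb1 expression induced with 0.2% (w/v) L-rhamnose at OD600 near 0.5, cultures sampled hourly, flipped fraction per protease–substrate barcode pair counted by paired-end Illumina sequencing.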
Variant,area with substrate CNLYFQS,area with substrate DNLYFQS,area with substrate GNLYFQS,area with substrate HNLYFQS,area with substrate PNLYFQS,area with substrate TNLYFQS,area with substrate VNLYFQS,area with substrate KNLYFQS,area with substrate NNLYFQS,area with substrate QNLYFQS,area with substrate RNLYFQS,area with substrate SNLYFQS,area with substrate YNLYFQS,area with substrate INLYFQS,area with substrate MNLYFQS,area with substrate WNLYFQS,area with substrate FNLYFQS,area with substrate LNLYFQS
MGESLFKGPRDYNPISSSICHLTNESDGHTTSLYGIGFGPFIITNKHLFRRNNGTLVVQSLHGVFKVKDTTTLQQHLVDGRDMIIIRMPKDFPPFPQKLKFREPQREERICLVTTNFQTKSMSSMVSDTSCTFPSGYGIFWKHWIQTKDGQCGSPLVSTRDGFIVGIHSASNFTNTNNYFTSVPKNFMELLTNQEAQQWVSGWRLNADSVLWGGHKVFMVKPEEPFQPVKEATQL [D137Y],0.0606,0.0679,0.0937,0.0593,0.0721,0.0381,0.0574,–,–,–,–,–,–,–,–,–,–,–
MGESLFKGPRDYNPISSSICHLTNESDGHTTSLYGIGFGPFIITNKHLFRRNNGTLVVQSLHGVFKVKDTTTLQQHLVDGRDMIIIRMPKDFPPFPQKLKFREPQREERICLVTTNFQTKSMSSMVSDTSCTFPSGDGIFWKHWIITKDGQCGSPLVSTRDGFIVGIHSASNFTNTNNYFTSVPKNFMELLTNQEAQQWVSGWRLNADSVLWGGHKVFMVKPEEPFQPVKEATQL [Q146I],0.0767,0.0914,0.0618,0.0726,0.0707,0.034,–,0.0576,0.0717,0.0703,0.0554,0.0702,0.0722,–,–,–,–,–
MGESLFKGPRDYNPISSSICHLTNESDGHTTSLYGIGFGPFIITNKHLFRRNNGTLVVQSLHGVFKVKDTTTLQQHLVDGRDMIIIRMPKDFPPFPQKLKFREPQREERICLVTTNFQTKSMSSMVSDTSCTFPSGDGIFWKHWQQTKDGQCGSPLVSTRDGFIVGIHSASNFTNTNNYFTSVPKNFMELLTNQEAQQWVSGWRLNADSVLWGGHKVFMVKPEEPFQPVKEATQL [I145Q],0.0455,0.0393,0.0529,0.0481,–,0.0571,0.0559,–,0.052,–,–,–,0.0442,0.0659,0.0544,0.05,–,–
MGESLFKGPRDYNPISSSICHLTNESDGHTTSLYGIGFGPFIITNKHLFRRNNGTLVVQSLHGVFKVKDTTTLQQHLVDGRDMIIIRMPKDFPPFPQKLKFREPQREERICLVTTNFQTKSMSSMVSDTSCTFPSYDGIFWKHWIQTKDGQCGSPLVSTRDGFIVGIHSASNFTNTNNYFTSVPKNFMELLTNQEAQQWVSGWRLNADSVLWGGHKVFMVKPEEPFQPVKEATQL [G136Y],0.0607,0.0946,0.0678,0.0673,–,0.059,–,0.069,0.065,–,0.0763,0.0675,–,–,0.0447,0.117,0.066,0.0565
MGESLFKGPRDYNPISSSICHLTNESDGHTTSLYGIGFGPFIITNKHLFRRNNGTLVVQSLHGVFKVKDTTTLQQHLVDGRDMIIIRMPKDFPPFPQKLKFREPQREERICLVTTNFQTKSMSSMVSDTSCTFPSGDGIFWKHWIQIKDGQCGSPLVSTRDGFIVGIHSASNFTNTNNYFTSVPKNFMELLTNQEAQQWVSGWRLNADSVLWGGHKVFMVKPEEPFQPVKEATQL [T147I],0.049,0.0577,–,0.0577,0.0544,0.0678,0.0536,0.069,–,–,–,0.0493,–,0.0605,–,0.0653,0.0589,0.0472
MGESLFKGPRDYNPISSSICHLTNESDGHTTSLYGIGFGPFIITNKHLFRRNNGTLVVQSLHGVFKVKDTTTLQQHLVDGRDMIIIRMPKDFPPFPQKLKFREPQREERICLVTTNFQTKSMSSMVSDTSCTFPSGDGIFWKHWIQWKDGQCGSPLVSTRDGFIVGIHSASNFTNTNNYFTSVPKNFMELLTNQEAQQWVSGWRLNADSVLWGGHKVFMVKPEEPFQPVKEATQL [T147W],0.0472,0.0503,–,0.0639,–,0.0661,0.0877,0.0667,0.0647,–,0.042,0.0557,0.0609,0.0547,–,0.0643,–,0.0677
MGESLFKGPRDYNPISSSICHLTNESDGHTTSLYGIGFGPFIITNKHLFRRNNGTLVVQSLHGVFKVKDTTTLQQHLVDGRDMIIIRMPKDFPPFPQKLKFREPQREERICLVTTNFQTKSMSSMVSDTSCTFPSGDGIFWKHWIQGKDGQCGSPLVSTRDGFIVGIHSASNFTNTNNYFTSVPKNFMELLTNQEAQQWVSGWRLNADSVLWGGHKVFMVKPEEPFQPVKEATQL [T147G],0.042,0.0641,–,0.0634,0.053,0.0644,–,–,–,–,–,–,–,0.0587,–,0.0595,–,–
MGESLFKGPRDYNPISSSICHLTNESDGHTTSLYGIGFGPFIITNKHLFRRNNGTLVVQSLHGVFKVKDTTTLQQHLVDGRDMIIIRMPKDFPPFPQKLKFREPQREERICLVTTNFQTKSMSSMVSDTSCTFPSGDGIFWKHWIQPKDGQCGSPLVSTRDGFIVGIHSASNFTNTNNYFTSVPKNFMELLTNQEAQQWVSGWRLNADSVLWGGHKVFMVKPEEPFQPVKEATQL [T147P],0.0571,0.067,0.0686,0.0592,0.0644,0.0629,–,0.0548,–,–,0.0657,0.0591,0.0656,0.0558,0.0822,0.0553,0.0669,0.0556
MGESLFKGPRDYNPISSSICHLTNESDGHTTSLYGIGFGPFIITNKHLFRRNNGTLVVQSLHGVFKVKDTTTLQQHLVDGRDMIIIRMPKDFPPFPQKLKFREPQREERICLVTTNFQTKSMSSMVSDTSCTFPSGDGIFWKHWIQTWDGQCGSPLVSTRDGFIVGIHSASNFTNTNNYFTSVPKNFMELLTNQEAQQWVSGWRLNADSVLWGGHKVFMVKPEEPFQPVKEATQL [K148W],0.0456,0.0821,0.0595,0.0452,0.0665,0.0685,0.0538,0.0817,0.0565,0.0586,–,0.0602,0.0548,0.0689,–,0.0634,0.0697,0.0599
MGESLFKGPRDYNPISSSICHLTNESDGHTTSLYGIGFGPFIITNKHLFRRNNGTLVVQSLHGVFKVKDTTTLQQHLVDGRDMIIIRMPKDFPPFPQKLKFREPQREERICLVTTNFQTKSMSSMVSDTSCTFPSGDGIFWKDWIQTKDGQCGSPLVSTRDGFIVGIHSASNFTNTNNYFTSVPKNFMELLTNQEAQQWVSGWRLNADSVLWGGHKVFMVKPEEPFQPVKEATQL [H143D],0.0352,0.0583,0.0469,0.0566,0.0599,0.0613,0.0529,–,–,–,0.0581,0.0639,–,0.068,0.0402,0.0482,–,–
